To fix the notation:
B1: CPEB3 Ribozyme (parent)
chain: UAACAGGGGGCCACAGCAGAAGCGUUCACGUCGCAGCCCCUGUCAGAUUCUGGUGAAUCUGCGAAUUCUGCUGUAUAUCUC

Read counts are not given, so values of variants with three or more changes are uncertain.

This series covers variants of B1. The experiment in a line: self-cleavage, relative activity (ratio to wild type); higher = more cleavage; in vitro, sequencing. The method in brief:
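Relative activity was defined as the cleaved/total read fraction for a variant divided by the same fraction for the unmutated ribozyme. CPEB3 self-cleaving ribozyme libraries were made by rounds of error-prone PCR, barcoded, and transcribed in vitro with T7 RNA polymerase for 5 hours at 37°C, and cleavage ran through transcription plus a 15 min DNase I step before EDTA. Illumina sequencing of template-switched reverse transcripts gave the reads, and DNA sequencing mapped the barcodes. Averages come from three batches, using variants with at least 5 reads.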
Turning to A5G G10A A18U, the self-cleavage turned out to be 0.23.

For A5G C27G U51A A57G, the self-cleavage is 0.29.

For A5G C14U A28G U49C U51C, the self-cleavage is 0.11.

Consider A5G C34U U60C, for which the self-cleavage is 0.39.

With A5G A35G G36A A77G U78C, the self-cleavage is 0.42.

On to A5G A47G U69A, for which the self-cleavage was determined as 0.59.

For A5G C17A A28G U78C, the self-cleavage was determined as 0.09.

In the case of A5G A64U U66C C68A, the self-cleavage amounted to 0.23.

A5G G22A U78A: the self-cleavage was 0.08.

In the case of A5G G9A U25C U49C A56G U58A, the self-cleavage amounted to 0.07.

With A5G G7U A18U, the self-cleavage turned out to be 0.25.

With A5G A45U A47G, the self-cleavage is 0.31.

With A5G C23A A64U, the self-cleavage was determined as 0.28.

As to A5G G53A U54C U66A, the self-cleavage worked out at 0.34.

Regarding A5G G19U U26C, the self-cleavage amounted to 0.52.

Consider A5G C11U A15G G73A, for which the self-cleavage came out at 0.53.

On to A5G C40U U69C, for which the self-cleavage worked out at 0.24.

In the case of A5G G6A A21G U26A U67C, the self-cleavage came to 0.06.

Take A5G A35G A64U: the self-cleavage is 0.42.

A5G C23A U25C U41C U49A A77U: the self-cleavage was found to be 0.06.

Turning to A5G C23A U69C, the self-cleavage is 0.39.

Regarding A5G A57G U66C U67C U69A U76C, the self-cleavage turned out to be 0.39.

In the case of A5G G22A U25C U60C, the self-cleavage came to 0.07.

For the variant A5G A45U A47G A65G U67A, the self-cleavage turned out to be 0.

Take A5G G8U U26C U51C U54A: the self-cleavage stood at 0.06.

With A5G G46A G63U, the self-cleavage is 0.42.

Consider A5G A45U A64U A75U, for which the self-cleavage came out at 0.28.

Consider A5G C11G U26A A64U U78C, for which the self-cleavage came to 0.03.

Regarding A5G C40U G42A U43C A45G U49C A75G, the self-cleavage stood at 0.09.

Turning to A5G G8U A21G U26A U48C U60G, the self-cleavage turned out to be 0.07.

Take A5G G7C G46U U80A: the self-cleavage came out at 0.25.

Consider A5G U25C A28G A45C U58C U69A, for which the self-cleavage is 0.

For A5G A28U A35G U41A A64U, the self-cleavage came out at 0.15.

In the case of A5G G10C U41C A56G, the self-cleavage came out at 0.27.

For A5G C29G U41C, the self-cleavage was 0.36.

For A5G C11G U26A A47G U69A, the self-cleavage was found to be 0.18.

Regarding A5G G9U U31A U43A U58C U72C, the self-cleavage was found to be 0.04.

Take A5G C12U C14A A21G U51C U60C: the self-cleavage turned out to be 0.2.

For the variant A5G G10A A15U A28U U43A A45G, the self-cleavage stood at 0.05.

Turning to A5G C17G A18G U41C U54A, the self-cleavage stood at 0.37.

In the case of A5G A35G U48C G52C U72C, the self-cleavage amounted to 0.5.

For A5G A45C A57U U58A, the self-cleavage amounted to 0.45.

For the variant A5G C39A U58C U67C U69A, the self-cleavage stood at 0.56.

As for A5G G10C A13G C37U U67G U69C U74A, the self-cleavage turned out to be 0.04.

A5G G9U A47G: the self-cleavage amounted to 0.18.

A5G G8A C11U U43G: the self-cleavage amounted to 0.06.

For the variant A5G G7U A56G U67A U72A, the self-cleavage was 0.07.

In the case of A5G G30A C79A, the self-cleavage is 0.39.

In the case of A5G C34G C40A A64G U76A U78C, the self-cleavage stood at 0.22.

Turning to A5G G6A A35G U66C, the self-cleavage was 0.32.

For the variant A5G C12G A21U U31A A45G C68A, the self-cleavage was 0.03.

For A5G A64U U78C, the self-cleavage came out at 0.09.

For A5G A35G U51C U60C, the self-cleavage amounted to 0.33.

For the variant A5G G19C A28U A47G U48A U74G, the self-cleavage stood at 0.12.

For A5G A56U U78A U80A, the self-cleavage is 0.44.

Consider A5G G6A A35U A56G U69C, for which the self-cleavage was found to be 0.08.

With A5G G10A G61A U67C U72A, the self-cleavage was found to be 0.11.

Regarding A5G C17A U26C A35G C50U, the self-cleavage worked out at 0.09.

For A5G G6C G61A U74C, the self-cleavage was found to be 0.48.

In the case of A5G G7A U72C, the self-cleavage was found to be 0.49.

As for A5G C17U A47G A56G, the self-cleavage was found to be 0.13.

For the variant A5G C23G U41A U80C, the self-cleavage amounted to 0.1.

Consider A5G A35G A45G A56G U58C A75U U78C, for which the self-cleavage was determined as 0.25.

On to A5G A35G A57U U60C, for which the self-cleavage is 0.16.

As to A5G G30U G73A U74A, the self-cleavage is 0.1.

For the variant A5G G7A A28U A35G U43A G70C, the self-cleavage stood at 0.1.

With A5G C14U A18G U41C U43A U80A, the self-cleavage came out at 0.19.

A5G A57G C68A U72C A77G C79G: the self-cleavage amounted to 0.14.

Consider A5G G53A G73A, for which the self-cleavage turned out to be 1.21.

As for A5G G55U U78C, the self-cleavage turned out to be 0.35.

In the case of A5G G8U A20G C50U U54C, the self-cleavage was 0.17.

With A5G C29U C32U U48C U49C A57U U58C, the self-cleavage was 0.09.

Take A5G G8A C14U A18G A20G C23U: the self-cleavage turned out to be 0.26.

Consider A5G C23U G24A U25C C27A, for which the self-cleavage came out at 0.48.

In the case of A5G G9A U66C G70U, the self-cleavage came out at 0.31.

As to A5G C23G C29U U69A U72C, the self-cleavage stood at 0.1.

With A5G G53U U60C, the self-cleavage is 0.54.

For A5G G63A A64C, the self-cleavage is 0.25.

Turning to A5G C17G A18U U25C U54C U72A, the self-cleavage worked out at 0.25.

For the variant A5G C11U U26A A35U, the self-cleavage is 0.12.

In the case of A5G C23G U26A A45U U69A, the self-cleavage came to 0.11.

On to A5G C34A U41C U60C U78C, for which the self-cleavage turned out to be 0.26.

Consider A5G G10U A20C U60C G73A, for which the self-cleavage was found to be 0.56.

The values are drawn from the RNAGym collection of RNA variant scans (doi:10.1093/nar/gkz1192).
